{"source": "the supplement of paper PMC12217912", "parents": {"B1": {"name": "TEV protease; numbered along this chain (parent)", "chain": "MGESLFKGPRDYNPISSSICHLTNESDGHTTSLYGIGFGPFIITNKHLFRRNNGTLVVQSLHGVFKVKDTTTLQQHLVDGRDMIIIRMPKDFPPFPQKLKFREPQREERICLVTTNFQTKSMSSMVSDTSCTFPSGDGIFWKHWIQTKDGQCGSPLVSTRDGFIVGIHSASNFTNTNNYFTSVPKNFMELLTNQEAQQWVSGWRLNADSVLWGGHKVFMVKPEEPFQPVKEATQL"}}, "note": "The list shows a part of the results. The full chains were built here from the parent and the listed change. Values near 0.05 are background.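 Note: Bxb1 expression induced with 0.2% (w/v) L-rhamnose at OD600 near 0.5, cultures sampled hourly, flipped fraction per protease–substrate barcode pair counted by paired-end Illumina sequencing.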"}
{"variants_of": "B1", "experiment": "raw area under fraction-flipped curve 0-4 h after induction (AUC4h, not background-subtracted), DNA-recorder readout of cleavage of the substrate (dimensionless); higher = more cleavage of the substrate by the protease variant", "conditions": "temperature: 34 °C; time window: 0-4 h after rhamnose induction"}
{"variant": "M88Y", "area with substrate ENEYFQS": 0.0531, "area with substrate ENFYFQS": 0.0377, "area with substrate ENGYFQS": 0.0524, "area with substrate ENKYFQS": 0.0412, "area with substrate ENMYFQS": 0.0672, "area with substrate ENPYFQS": 0.0415, "area with substrate ENQYFQS": 0.0261, "area with substrate ENRYFQS": 0.0316, "area with substrate ENSYFQS": 0.0506, "area with substrate ENTYFQS": 0.0445}
{"variant": "M88E", "area with substrate ENGYFQS": 0.0454, "area with substrate ENHYFQS": 0.0467, "area with substrate ENIYFQS": 0.0496, "area with substrate ENNYFQS": 0.0237, "area with substrate ENQYFQS": 0.0866, "area with substrate ENRYFQS": 0.0431, "area with substrate ENSYFQS": 0.0328, "area with substrate ENVYFQS": 0.0616, "area with substrate ENWYFQS": 0.0816, "area with substrate ENYYFQS": 0.0356}
{"variant": "A232F", "area with substrate ENEYFQS": 0.0619, "area with substrate ENFYFQS": 0.0604, "area with substrate ENGYFQS": 0.0675, "area with substrate ENHYFQS": 0.0501, "area with substrate ENIYFQS": 0.108, "area with substrate ENNYFQS": 0.0609, "area with substrate ENQYFQS": 0.0548, "area with substrate ENSYFQS": 0.068, "area with substrate ENTYFQS": 0.071, "area with substrate ENWYFQS": 0}
{"variant": "T72A", "area with substrate ENEYFQS": 0.0582, "area with substrate ENFYFQS": 0.0593, "area with substrate ENGYFQS": 0.0589, "area with substrate ENHYFQS": 0.063, "area with substrate ENIYFQS": 0.0851, "area with substrate ENNYFQS": 0.0449, "area with substrate ENQYFQS": 0.0582, "area with substrate ENRYFQS": 0.0535, "area with substrate ENSYFQS": 0.0674, "area with substrate ENTYFQS": 0.0415, "area with substrate ENVYFQS": 0.072}
{"variant": "T192W", "area with substrate ENIYFQS": 0.0765, "area with substrate ENQYFQS": 0.0638}
{"variant": "K216S", "area with substrate ENEYFQS": 0.0625, "area with substrate ENFYFQS": 0.0613, "area with substrate ENGYFQS": 0.0503, "area with substrate ENMYFQS": 0.0756, "area with substrate ENTYFQS": 0.0638, "area with substrate ENVYFQS": 0.0606}
{"variant": "K216R", "area with substrate ENIYFQS": 0.113, "area with substrate ENPYFQS": 0.0659}
{"variant": "R160N", "area with substrate ENEYFQS": 0.0807, "area with substrate ENGYFQS": 0.065, "area with substrate ENNYFQS": 0.0718, "area with substrate ENPYFQS": 0.0522, "area with substrate ENQYFQS": 0.053, "area with substrate ENRYFQS": 0.0318, "area with substrate ENSYFQS": 0.0636, "area with substrate ENTYFQS": 0.0643}
{"variant": "V200A", "area with substrate ENEYFQS": 0.0699, "area with substrate ENFYFQS": 0.0785, "area with substrate ENHYFQS": 0.0507, "area with substrate ENIYFQS": 0.0815, "area with substrate ENSYFQS": 0.0512, "area with substrate ENTYFQS": 0.0603, "area with substrate ENVYFQS": 0.0453}
{"variant": "V200S", "area with substrate ENEYFQS": 0.0457}
